# Reference: the supplement of paper PMC10037445
# ± gives the standard deviation of the averaged measurements. The full ranking holds about 2,900 compounds; the median of “IRF Lucia reporter activity, fold change vs agonist alone” is about 0.9, and the highest 2% start at about 2.8. This is one part of the list.
# Experiments:
# [1] = test system: RAW-Dual; assay: IRF Lucia reporter activity, fold change vs agonist alone; cytotoxicity flag (confluency mask): not cytotoxic; higher = enhanced IRF activity
# How it was run: (§1)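 Cytotoxic wells were those whose IncuCyte confluency was below 70% of agonist controls in both mask sets. The cells were RAW-Dual macrophages at 50,000 cells/well in DMEM on 384-well plates, dosed with 50 nL of library stock by pin tool, stimulated with a PRR agonist 1 h later, and kept at 37 °C, 5% CO2 for 20 hours. IRF and NF-κB reporter activity, as fold change over agonist-alone wells, came from supernatant read by QuantiLuc luminescence and QuantiBlue absorbance, respectively.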
# [2] = test system: RAW-Dual; assay: IRF Lucia reporter activity, fold change vs agonist alone; higher = enhanced IRF activity; details: library stock concentration (final ~1000-fold dilution): 10 mM, agonist: MPLA (TLR4) […]
# How it was run: as §1
# [3] = test system: RAW-Dual; assay: IRF Lucia reporter activity, fold change vs agonist alone; cytotoxicity flag (confluency mask): cytotoxic (confluency <70% of control); higher = enhanced IRF activity
# How it was run: as §1
# [4] = agonist: 3'3'-cGAMP (STING) 10 ug/mL
# [5] = cytotoxicity flag (confluency mask): not cytotoxic
structure (smiles),measurement,setting,value
O=C(NCCS(=O)(=O)c1ccc(C(F)(F)F)cn1)c1ccc(Cl)cc1 (library stock concentration (final ~1000-fold dilution): 10 mM),IRF Lucia reporter activity,[1]; [4],0.893
same,IRF Lucia reporter activity,[1]; agonist: LPS (TLR4) 0.1 ug/mL,1.14
CC(C)CC(=O)Nc1n[nH]c2c1CN(C(=O)C1CCN(C)CC1)C2(C)C,IRF Lucia reporter activity,[2]; [5],0.11
CC(C)CC(=O)Nc1n[nH]c2c1CN(C(=O)C1CCN(C)CC1)C2(C)C (library stock concentration (final ~1000-fold dilution): 10 mM),IRF Lucia reporter activity,[1]; [4],0.402
same,IRF Lucia reporter activity,[1]; agonist: LPS (TLR4) 0.1 ug/mL,0.269
CC(C)=CCC[C@](C)(O)[C@@H]1CC[C@]2(C)C3CCC4C(C)(C)C(O[C@@H]5O[C@H](CO)[C@@H](O)[C@H](O)[C@H]5O[C@@H]5O[C@H](CO)[C@@H](O)[C@H](CO)[C@H]5O)CC[C@]4(C)C3C[C@H](O)[C@H]12 (some centres undefined) (library stock concentration (final ~1000-fold dilution): 10 mM),IRF Lucia reporter activity,[1]; [4],0.835
same,IRF Lucia reporter activity,[1]; agonist: LPS (TLR4) 0.1 ug/mL,0.965
Cc1ccc(C(=O)N(CCCN)C(c2oc3cc(Cl)ccc3c(=O)c2Cc2ccccc2)C(C)C)cc1.Cl (centres undefined),IRF Lucia reporter activity,[2]; [5],1.11
Cc1ccc(C(=O)N(CCCN)C(c2oc3cc(Cl)ccc3c(=O)c2Cc2ccccc2)C(C)C)cc1.Cl (centres undefined) (library stock concentration (final ~1000-fold dilution): 10 mM),IRF Lucia reporter activity,[1]; [4],1.01
same,IRF Lucia reporter activity,[1]; agonist: LPS (TLR4) 0.1 ug/mL,0.0205
O=C(O)c1ccc(Br)c(O)c1 (library stock concentration (final ~1000-fold dilution): 10 mM),IRF Lucia reporter activity,[1]; [4],1.03
same,IRF Lucia reporter activity,[1]; agonist: LPS (TLR4) 0.1 ug/mL,1.4
O=C(O)c1ccc(Br)c(O)c1,IRF Lucia reporter activity,[2]; [5],1.07
O=C(O)CCNc1cc(N2CCc3ccccc3CC2)nc(-c2ccccn2)n1 (library stock concentration (final ~1000-fold dilution): 10 mM),IRF Lucia reporter activity,[1]; [4],0.949
same,IRF Lucia reporter activity,[1]; agonist: LPS (TLR4) 0.1 ug/mL,1.33
O=C(O)CCNc1cc(N2CCc3ccccc3CC2)nc(-c2ccccn2)n1,IRF Lucia reporter activity,[2]; [5],1.03
Cl.Cl.Fc1ccc(C(c2ccc(F)cc2)N2CCN(C/C=C/c3ccccc3)CC2)cc1 (library stock concentration (final ~1000-fold dilution): 10 mM),IRF Lucia reporter activity,[1]; [4],0.836
same,IRF Lucia reporter activity,[1]; agonist: LPS (TLR4) 0.1 ug/mL,1.22
Cl.Cl.Fc1ccc(C(c2ccc(F)cc2)N2CCN(C/C=C/c3ccccc3)CC2)cc1,IRF Lucia reporter activity,[2]; [5],1.06
CC(C)c1cnn2c(NCc3ccccc3)cc(NCCCCCCN)nc12.Cl,IRF Lucia reporter activity,[2]; cytotoxicity flag (confluency mask): cytotoxic (confluency <70% of control),0.153
CC(C)c1cnn2c(NCc3ccccc3)cc(NCCCCCCN)nc12.Cl (library stock concentration (final ~1000-fold dilution): 10 mM),IRF Lucia reporter activity,[3]; [4],0.218
same,IRF Lucia reporter activity,[3]; agonist: LPS (TLR4) 0.1 ug/mL,0.0402
CCNC(=O)c1cc2c(-c3cc(C(C)(C)O)ccc3Oc3c(C)cc(F)cc3C)cn(C)c(=O)c2[nH]1 (library stock concentration (final ~1000-fold dilution): 10 mM),IRF Lucia reporter activity,[3]; [4],0.444
same,IRF Lucia reporter activity,[3]; agonist: LPS (TLR4) 0.1 ug/mL,0.163
Cc1cc([N+](=O)[O-])ccc1NS(=O)(=O)c1cc(Cl)ccc1Cl (library stock concentration (final ~1000-fold dilution): 10 mM),IRF Lucia reporter activity,[1]; [4],0.804
same,IRF Lucia reporter activity,[1]; agonist: LPS (TLR4) 0.1 ug/mL,1
Cc1cc([N+](=O)[O-])ccc1NS(=O)(=O)c1cc(Cl)ccc1Cl,IRF Lucia reporter activity,[2]; [5],1.17
C=CC(=O)N1CCCC(n2nc(-c3ccc(Oc4ccccc4)cc3)c3c(N)ncnc32)C1 (centres undefined),IRF Lucia reporter activity,[2]; [5],0.458
C=CC(=O)N1CCCC(n2nc(-c3ccc(Oc4ccccc4)cc3)c3c(N)ncnc32)C1 (centres undefined) (library stock concentration (final ~1000-fold dilution): 10 mM),IRF Lucia reporter activity,[1]; [4],0.137
same,IRF Lucia reporter activity,[1]; agonist: LPS (TLR4) 0.1 ug/mL,0.366
COc1ccc(COc2ccc(Cc3cnc(N)nc3N)cc2OC)cc1 (library stock concentration (final ~1000-fold dilution): 10 mM),IRF Lucia reporter activity,[1]; [4],0.88
same,IRF Lucia reporter activity,[1]; agonist: LPS (TLR4) 0.1 ug/mL,0.982
CCN(CC)CCNC(=O)c1c(C)[nH]c(/C=C2\C(=O)Nc3ccc(F)cc32)c1C.O=C(O)CC(O)C(=O)O (library stock concentration (final ~1000-fold dilution): 10 mM),IRF Lucia reporter activity,[1]; [4],0.017
same,IRF Lucia reporter activity,[1]; agonist: LPS (TLR4) 0.1 ug/mL,0.0168
CCN(CC)CCNC(=O)c1c(C)[nH]c(/C=C2\C(=O)Nc3ccc(F)cc32)c1C.O=C(O)CC(O)C(=O)O,IRF Lucia reporter activity,[2]; [5],0.0244
Cc1ccc(C(=O)c2cc(O)c(O)c([N+](=O)[O-])c2)cc1,IRF Lucia reporter activity,[2]; [5],0.858
Cc1ccc(C(=O)c2cc(O)c(O)c([N+](=O)[O-])c2)cc1 (library stock concentration (final ~1000-fold dilution): 10 mM),IRF Lucia reporter activity,[1]; [4],0.873
same,IRF Lucia reporter activity,[1]; agonist: LPS (TLR4) 0.1 ug/mL,0.99
CC1(C)OC2CC(=O)OCC23C1CC(=O)C1(C)C3CCC2(C)C(c3ccoc3)OC(=O)C3OC321 (centres undefined),IRF Lucia reporter activity,[2]; [5],1.06
CC1(C)OC2CC(=O)OCC23C1CC(=O)C1(C)C3CCC2(C)C(c3ccoc3)OC(=O)C3OC321 (centres undefined) (library stock concentration (final ~1000-fold dilution): 10 mM),IRF Lucia reporter activity,[1]; [4],1.11
same,IRF Lucia reporter activity,[1]; agonist: LPS (TLR4) 0.1 ug/mL,0.885
O=C([O-])c1ccccc1O.[Na+],IRF Lucia reporter activity,[2]; [5],1.05 ± 0.019
O=C([O-])c1ccccc1O.[Na+] (library stock concentration (final ~1000-fold dilution): 10 mM),IRF Lucia reporter activity,[1]; [4],0.928 ± 0.1
same,IRF Lucia reporter activity,[1]; agonist: LPS (TLR4) 0.1 ug/mL,1.03 ± 0.056
CC(NCc1ccc(OCc2cccc(F)c2)cc1)C(N)=O.CS(=O)(=O)O (centres undefined),IRF Lucia reporter activity,[2]; [5],0.619
CC(NCc1ccc(OCc2cccc(F)c2)cc1)C(N)=O.CS(=O)(=O)O (centres undefined) (library stock concentration (final ~1000-fold dilution): 10 mM),IRF Lucia reporter activity,[1]; [4],0.779
same,IRF Lucia reporter activity,[1]; agonist: LPS (TLR4) 0.1 ug/mL,0.957
C[N+]1(C)C2CC(OC(=O)C(O)(c3cccs3)c3cccs3)CC1C1OC12 (centres undefined),IRF Lucia reporter activity,[2]; [5],1.02
C[N+]1(C)C2CC(OC(=O)C(O)(c3cccs3)c3cccs3)CC1C1OC12 (centres undefined) (library stock concentration (final ~1000-fold dilution): 10 mM),IRF Lucia reporter activity,[1]; [4],0.978
same,IRF Lucia reporter activity,[1]; agonist: LPS (TLR4) 0.1 ug/mL,1.08
O=C(N/N=C/c1ccc(O)c(O)c1)c1cc2ccccc2cc1O (library stock concentration (final ~1000-fold dilution): 10 mM),IRF Lucia reporter activity,[1]; [4],0.0222
same,IRF Lucia reporter activity,[1]; agonist: LPS (TLR4) 0.1 ug/mL,0.668
COC(C)Cn1c(=O)n(C)c2cnc3ccc(-c4cncc(C(C)(C)O)c4)cc3c21 (centres undefined) (library stock concentration (final ~1000-fold dilution): 10 mM),IRF Lucia reporter activity,[1]; [4],0.277
same,IRF Lucia reporter activity,[1]; agonist: LPS (TLR4) 0.1 ug/mL,0.648
